# In PMC4336329 (PLoS ONE, 2015):
# In all, about 310,000 compounds went through this assay and about 14,000 (4.5%) showed an effect of 50% or more. The effect is printed as a negative number. The list shows a part of the results.
# Molecular target: human ether-à-go-go-related gene (hERG) potassium channel (human, UniProt Q12809)
# Assay: primary screen, population patch clamp on CHO cells stably expressing hERG
# 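Further: peak tail current of the secondary pulse compared with the same well before compound.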
# human ether-à-go-go-related gene (hERG) potassium channel, sequence (Q12809 whole entry, looked up): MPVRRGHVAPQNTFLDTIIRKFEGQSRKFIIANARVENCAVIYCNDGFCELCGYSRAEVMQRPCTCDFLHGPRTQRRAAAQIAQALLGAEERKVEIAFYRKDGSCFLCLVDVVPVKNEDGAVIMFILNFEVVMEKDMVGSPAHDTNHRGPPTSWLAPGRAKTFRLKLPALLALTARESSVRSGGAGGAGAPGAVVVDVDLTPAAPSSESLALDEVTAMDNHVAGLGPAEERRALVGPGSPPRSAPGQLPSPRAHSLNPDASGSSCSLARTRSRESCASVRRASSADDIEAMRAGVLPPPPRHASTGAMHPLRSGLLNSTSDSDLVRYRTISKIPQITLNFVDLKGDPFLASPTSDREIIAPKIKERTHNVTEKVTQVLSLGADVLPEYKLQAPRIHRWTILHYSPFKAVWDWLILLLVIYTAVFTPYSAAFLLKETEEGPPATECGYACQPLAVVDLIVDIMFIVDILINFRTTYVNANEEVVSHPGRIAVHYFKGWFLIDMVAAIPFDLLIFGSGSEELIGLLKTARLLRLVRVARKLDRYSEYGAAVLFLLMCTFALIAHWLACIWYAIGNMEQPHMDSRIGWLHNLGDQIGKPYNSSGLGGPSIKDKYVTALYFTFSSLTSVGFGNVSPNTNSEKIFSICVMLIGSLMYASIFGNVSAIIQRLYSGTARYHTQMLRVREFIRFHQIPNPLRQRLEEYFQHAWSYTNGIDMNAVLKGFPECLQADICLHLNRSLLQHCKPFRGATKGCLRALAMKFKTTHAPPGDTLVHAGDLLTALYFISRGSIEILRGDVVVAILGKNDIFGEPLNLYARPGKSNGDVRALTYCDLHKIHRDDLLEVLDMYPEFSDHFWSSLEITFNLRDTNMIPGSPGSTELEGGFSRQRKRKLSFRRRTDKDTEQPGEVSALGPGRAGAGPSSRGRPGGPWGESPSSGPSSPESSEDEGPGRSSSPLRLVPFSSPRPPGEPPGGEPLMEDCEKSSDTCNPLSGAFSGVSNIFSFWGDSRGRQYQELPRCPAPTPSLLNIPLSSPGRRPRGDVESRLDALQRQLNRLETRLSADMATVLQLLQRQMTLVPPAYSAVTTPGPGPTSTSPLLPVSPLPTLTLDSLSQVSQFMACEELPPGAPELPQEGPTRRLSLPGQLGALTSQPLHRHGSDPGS
row,SMILES,"hERG current change (%, negative = inhibition) at 10uM"
1,C[C@H](CCC(=O)O)[C@H]1CC[C@H]2[C@@H]3CC[C@@H]4C[C@H](O)CC[C@]4(C)[C@H]3C[C@H](O)[C@]12C,11.8%
2,Cc1ccc(CN2C(=O)N/C(=C/c3ccc4c(c3)n(C)c(=O)n4C)C2=O)cc1,2.13%
3,Cc1cccc(N(CC(=O)N2CCCC2)S(C)(=O)=O)c1,16%
4,C=C(C)C(=O)Nc1cccc(C2=NOC3(C2)C[C@@H](C(N)=O)N(C(=O)c2ccc(OC)cc2)C3)c1 (stereo partly drawn),5.4%
5,O=C(CCc1nnc(-c2ccccc2)o1)c1ccc(Cl)cc1,6.41%
6,CSc1nc(SCC(=O)NCc2ccco2)c2c3c(sc2n1)CN(C)CC3,-0.986%
7,Cc1c(CCC(=O)O)c(=O)oc2cc3occ(-c4ccc(F)cc4)c3cc12,-10.4%
8,Cc1ccc(C(=O)Nc2cnc3sc(C)nn3c2=O)cc1,9.63%
9,Cc1cc(C(=O)OCC(=O)Nc2cc(Cl)ccc2C)c(C)o1,0.501%
10,Cc1cc(NC(=O)CSc2ccccc2)no1,10.2%
11,CCc1nn(CC(=O)NCCCN2CCOCC2)c(=O)c2cc3cc(F)ccc3n12,-5.09%
12,CC(=O)Nc1ccc(N=Cc2c(O)c3ccccc3oc2=O)cc1,15%
13,CC(C)CN1CCC(=O)N([C@H](CSc2ccc(Br)cc2)c2ccccc2)CC1,-63.9%
14,COc1ccc(S(=O)(=O)N2CCC(C(=O)NCc3ccc(C)cc3)CC2)cc1,-29.7%
15,CCOC(=O)C1CCCN(C(=O)c2cc(S(=O)(=O)N3CCCCCC3)ccc2OC)C1 (stereo not drawn),-17.4%
16,Cc1cccc(C)c1-n1c(C)cc(/C=C2\C(=O)NN(c3ccccc3)C2=O)c1C,2.58%
17,Cc1c(CC(=O)NCCCC(=O)O)c(=O)oc2cc3oc4c(c3cc12)CCCC4,10.2%
18,CC(=O)c1cccc(NC(=O)CSCc2ccc(Br)cc2)c1,11.1%
19,COC(=O)c1c(NC(=O)c2cccnc2Cl)sc(C(=O)N(C)C)c1C,-6.44%

row,SMILES,"hERG current change (%, negative = inhibition) at 10uM"
1,Cc1ccc(NC(=O)NC2CCCCC2)cc1Cl,2.56%
2,Cc1cc(Br)cc(Cl)c1OC(=O)c1cnccn1,11.3%
3,CC1(C)C(=O)Nc2ccccc2N1C(=O)COC(=O)c1ccc(Cl)c(S(=O)(=O)NCc2ccccc2)c1,-12.8%
4,COCc1cc(=O)[nH]c(-c2ccccc2OC(F)(F)F)n1,-38.2%
5,O=C(COc1cc(Cl)c(Cl)cc1Cl)NCCN1CCOCC1,-7.1%
6,Cn1c([N+](=O)[O-])cnc1COC(N)=O,12.6%
7,CC#CC(=O)N1CCC(Oc2cccc(C(=O)NCc3ccccn3)c2)CC1,12.4%
8,Cn1cccc1/C=N/N1CCN(Cc2cccc3ccccc23)CC1,-4.35%
9,C=C(C)Cn1c(SCC(=O)O)nnc1-c1ccccc1,4.41%
10,O=C(N/N=C/c1cccnc1)c1ccc([N+](=O)[O-])cc1Cl,-11.1%
11,CCOn1c(=O)c(=O)n(O)c2ccccc21,35.7%
12,CCc1ccc(NC(=O)CCc2c(C)nn(-c3ccc(N4CCCCC4)nn3)c2C)cc1,-16.8%
13,CCCCn1nc2cc(C(=O)NC3CCc4ccccc43)ccc2c1OCC (stereo not drawn),-33.4%
14,O=C(NCc1ccccn1)C(=O)NN=C1CCCCCCCCCCC1,5.19%
15,Cc1cccc(OCCCC(=O)Nc2nccs2)c1,4.39%
16,CCN1CCN(CCC(=O)Nc2ccc(Br)c(C)c2)CC1.Cl,-30.8%
17,O=C(NCc1cccnc1)Nc1ccc(Cl)c(Cl)c1,-0.174%
18,Cc1noc(C)c1COc1ccccc1C(=O)N(C)CC(=O)Nc1ccc(Cl)c(Cl)c1,-21.4%
19,CCc1nnc(NS(=O)(=O)c2ccc(NC(=S)NC(=O)/C=C/c3ccc(C(C)C)cc3)cc2)s1,8.63%

row,SMILES,"hERG current change (%, negative = inhibition) at 10uM"
1,CC(O)C(=O)N/N=C/c1ccccc1C(=O)O (stereo not drawn),14%
2,CN(C)CCNc1nc(-c2ccco2)c2c(c1C#N)CC(C)(C)OC2,-55.7%
3,CCCCCN(C(=O)CCC(=O)OCc1cccc(C(F)(F)F)c1)c1c(N)n(CCCC)c(=O)[nH]c1=O,1.99%
4,Cc1cc(-c2nnc(CCC(=O)NC(Cc3ccccc3)c3ccccc3)o2)no1 (stereo not drawn),-0.709%
5,Cc1ccc(NC(=O)Nc2nc3ccccc3s2)cc1NC(=O)Nc1nc2ccccc2s1,6.17%
6,O=C(NCCc1ccccc1)C1CCCN(c2cnccn2)C1 (stereo not drawn),12.8%
7,Cc1cc(NC(=O)CC(C)(C)C)nc2c1c(=O)oc1ccccc12,12%
8,CC(=O)Nc1ccc(S(=O)(=O)NCCC(=O)OC(C)C(=O)NC2(C#N)CCCCC2)cc1 (stereo not drawn),-20.2%
9,CCOc1ccc(OCCSc2nnnn2-c2ccccc2)cc1,-3.82%
10,CCSc1ncc(C#N)c(=O)[nH]1,27.4%
11,CC1CCc2sc(C(=O)NNC(=O)c3ccncc3)cc2C1 (stereo not drawn),-0.00082%
12,Cc1nc(NC(=S)NC(=O)COc2ccc(Cl)cc2)ccc1Br,2.01%
13,COc1ccc(C(=O)N(NC(=O)Oc2ccccc2)C(C)(C)C)cc1,-0.877%
14,CCC(C)NS(=O)(=O)c1ccc(OCC(=O)NCc2ccc(OC)cc2)cc1 (stereo not drawn),24.7%
15,O=C(CNC(=O)c1ccc(Br)o1)Nc1ccccc1,15.8%
16,CN(C)/C=N/c1cc(=O)[nH]c(=O)n1C,13.6%
17,O=C(Nc1ccc(N2CCOCC2)cc1)NC1CCCCC1,6.25%
18,COc1cccc(OCC(O)CN2CCC(Cc3ccccc3)CC2)c1.Cl (stereo not drawn),-70.4%
19,CCCNC(=O)C12CCC(C)(C(=O)O1)C2(C)C (stereo not drawn),17.2%
